The record followed here is patent US9499493B2, “2,4-pyrimidinediamine compounds and their uses” (Rigel Pharmaceuticals, Inc., priority 2002, dated 2016).

Structures are written as SMILES. Structures can show the parent of a compound that is named as a salt.

One experiment concerns B-cell line BJAB. Kind of experiment: BJAB toxicity, Cell Titer Glo assay. The class given is cell-based. The following applies: 18 hours incubation. (Cellular ATP, detected with luciferase, serves as a proxy for viable cell number.)
The subject of the next experiment is Jurkat cells. As to the kind of experiment: Jurkat toxicity, Cell Titer Glo assay. Format: cell-based. The following applies: 18 hours incubation.
Experiment [1] can be described thus: Sheep model of allergic asthma (Ascaris suum challenge). Format: in vivo. The settings on record: aqueous suspension.
In experiment [2] the test system is IgE-induced degranulation of tissue mast cells. As to the kind of experiment: Mouse model of passive cutaneous anaphylaxis (PCA). The settings on record: PEG-based formulation (data not shown). Format: in vivo.
In experiment [3] the test system is cultured human mast cells (CHMC). As to the kind of experiment: CHMC low cell density ionomycin activation: tryptase assay. Format: cell-based.
Experiment [4] has the same test system. As to the kind of experiment: CHMC low cell density IgE activation: tryptase assay. Format: cell-based. The settings on record: anti-IgE.
Experiment [5] concerns bone marrow derived mast cells (BMMC). As to the kind of experiment: BMMC high cell density IgE activation: TNFalpha. The class given is cell-based, mouse. The settings on record: anti-IgE, second part of TABLE 1, read-out: BMMC anti-IgE TNF-alpha IC50.
Experiment [6] has the same test system. As to the kind of experiment: BMMC high cell density IgE activation: IL-6. The following applies: anti-IgE, second part of TABLE 1. Format: cell-based, mouse.
Experiment [7] shares this test system. Kind of experiment: BMMC high cell density IgE activation: histamine. The class given is cell-based, mouse. The following applies: anti-IgE, second part of TABLE 1.
Experiment [8] has the same test system. Kind of experiment: BMMC high cell density IgE activation: hexosaminidase. The settings on record: anti-IgE, second part of TABLE 1, read-out: BMMC anti-IgE hexos. IC50. Format: cell-based, mouse.
The test system is the same in experiment [9]. As to the kind of experiment: BMMC high cell density IgE activation: LTC4. The class given is cell-based, mouse. The following applies: anti-IgE, second part of TABLE 1.
The mark [10] stands for this setting: 45 mg/sheep, pretreatment 60 min.

As usually defined, the IC50 is the concentration at which inhibition is half-maximal. With `CNC(=O)COc1cccc(Nc2ncc(C(F)(F)F)c(Nc3cccc(O)c3)n2)c1` [R926742, N4-(3-Hydroxyphenyl)-5-trifluoromethyl-N2-[3-(N-methylamino)carbonylmethyleneoxyphenyl]-2,4-pyrimidinediamine], in the experiment on B-cell line BJAB, the IC50 is above 10000 nM. Also, in the experiment with Jurkat cells, 9000 nM corresponded to half-maximal inhibition (IC50). Moreover, the “LAR and AHR (in words)” value in experiment [1] (45 mg/sheep, 60 minutes prior to allergen challenge) was “blocked”. For the same compound, in [1] (setting [10]), the “AHR (% inhibition)” value is given as 94%, the “EAR (% inhibition)” value is given as −19% and the “LAR (% inhibition)” value stood at 87%. In addition, in experiment [1], the “EAR (in words)” value was “failed to inhibit”. Moreover, the “PCA response after oral administration (in words)” value in experiment [2] was “able to inhibit the PCA response”.

`CNC(=O)COc1cccc(Nc2ncc(F)c(Nc3ccc4cc[nH]c4c3)n2)c1` [R926745, 5-Fluoro-N4-[(1H)-indol-6-yl]-N2-[3-(N-methylamino)carbonylmethyleneoxyphenyl]-2,4-pyrimidinediamine]: the IC50 with B-cell line BJAB was above 10000 nM; in the experiment on Jurkat cells, above 10000 nM; in experiment [3] it was above 10000 nM; in experiment [4], 83 nM.

As to `O=C(COc1cccc(Nc2ncc(F)c(Nc3ccc4c(c3)OCCO4)n2)c1)NCC(O)CO` (stereo not drawn) [R926782, N2-[3-(N-2,3-Dihydroxypropylamino)carbonylmethyleneoxyphenyl]-N4-(3,4-ethylenedioxyphenyl)-5-fluoro-2,4-pyrimidinediamine], the concentration for half-maximal inhibition (IC50) was above 4330 nM in the experiment on B-cell line BJAB; 276 nM in experiment [5]; below 220 nM in experiment [6]; below 220 nM in [7]; below 220 nM in [8]; 1460 nM in experiment [9]. For the same compound, the IC50 in the experiment on Jurkat cells was above 4330 nM; in experiment [3] it was above 10000 nM; in [4], 173 nM.

As to `Cc1cc(Nc2nc(Nc3cccc(OCCN4CCNCC4)c3)ncc2F)cc(Cl)c1O` [R945150, N4-(3-Chloro-4-hydroxy-5-methylphenyl)-5-fluoro-N2-[3-[2-(N-piperazino)ethoxy]phenyl]-2,4-pyrimidinediamine Dihydrochloride Salt], the IC50 was above 4330 nM in the experiment on B-cell line BJAB; 709 nM in experiment [5]; 634 nM in experiment [6]; above 2000 nM in experiment [7]; above 2000 nM in experiment [8]; above 10000 nM in [9]. For the same compound, the IC50 in the experiment on Jurkat cells was above 4330 nM; in experiment [3], above 10000 nM; in experiment [4], 467 nM.
